Laboratory results taken from the supplement of paper PMC12632987.
In all, about 2,300 sequences were measured (“median log2 fold change of GCK-ALFA target abundance (FLAG IP / Myc IP barcode read proportion)”: median about 0.095, lowest 2% from about -0.47 on). The list shows a part of the results.

B1: LC3A_28_1022 (protein)
chain: SALDEELEALRAEVEAALARGEDVLLEVTIKPTDSLEEVRRKMERVKEIALEASKRGKVDVLIDVEKGVSQEKIDIVMDAAEELEEEDPSVNVIIALEEE
B2: LC3A_free_26_2154 (protein)
chain: DHFVDLVALDKAIDYLEKALELLEADPNASEKLKELVRKALEELKKETLESLKKALELLKEALKLLAEDKSLDPKTKAELTKLLTKAIELVKENIEIAES
B3: LC3A_3_1562 (protein)
chain: GEKLIEELLKELKEAGASEEVIEAVRKAAEALLERGYEEALKEFAEEMRKLLDLPDEYLLEFATEVLETVETEDLNEEELIERIKEIARTVRSAAEIIEL
B4: LC3A_3_1870 (protein)
chain: MDEVIAEILALLEALGRSEETIAAARELLEALKEKGYLEAAKTLLEELKKLKDLPDELLLDMFEDLLRAVKEENLNEEETIEKIKEEATTAKNEKEIIEL
B5: LC3A_17_539 (protein)
chain: KEELKEELKKLIEEAEKLVEEVKPYIPEEAEKAKKRLKEAKKLLEEGKLKEAAELLAETADEMADAVSETEWEDPLKRTLLELEFDSLAIEAESILLKLE
B6: LC3A_28_960 (protein)
chain: SELEKHLEEVLKRAKEAAEKGEPEVFVIKVPGTANEEDIEKVIEALKEIAEILKDVKGSAIIIEVDSGVKQEHIDKIADAAEEIEKKYPNITVIIALDED
B7: LC3A_3_1570 (protein)
chain: SEELLERGLRLLREAGFSEEVIEAARRTLEALLERGAEKAAEAVLETLLKLKDAPEELKLDLLEDVLELVETSTDSLEELEKAIKEELQVFLNESEIEEL
B8: LC3A_free_8_2541 (protein)
chain: NSQEATRKVTEKLDELEEELRELAKKLGLERLDILELELLIGSTIAEVIGLSDGSIEEIRKAVEEGFAEVLKKAKELSPELAELVEKGKKEILELLKKLE
B9: LC3A_free_39_2195 (protein)
chain: SEEEREEAKKEILELAAEYGEEAEKLAKELLELIGDDLERIKALLEALKKAKEEGVDILELLKEALELAKKLKAEGKSKEEIAEEVLELIEDYINLIPID
B10: LC3A_74_2077 (protein)
chain: SLTPEEAEIVLEALATAELLKELAKENPENKEKLLEKAKRLRELAEKVIELAGLDKELYESGGEIEAELLLDKENITVEEALERAEKKLEEVEKLLKKLE
B11: LC3A_3_1649 (protein)
chain: MEEKLEELEEELRKAGHSEETIEAFRETAEELIKRGYYEALEVLIEEVRKLKDLPDEILLAMLEDILRYIREEDASEEEVIEKIKEEARIARNEGEIIEL
B12: LC3A_127_180 (protein)
chain: STLEEALRLAEEIIRLAEEMLKPETSREERKELAKRIIELAERLKELQPELKEDADELIELAKEVLELFEKGEELNEYIEMLIEGIRVTAELILLKLEEK
B13: LC3A_free_46_2344 (protein)
chain: YKVEVTVDLRAAPKEETEATVKELEEKAKEIAKKYGAEVKIEVEFIENEDGTTSAIVKITFTAPTLETAQAIAQAMLDKIDELDAKTGLVGLVSVEIIET
B14: LC3A_free_8_2495 (protein)
chain: NVEKLVKAALKGLDKLEEELTKKAKELGLSRLDILELELEVGSTIADVISVSDEPPEKIIETTREGLEDIIKLAAELSEELAKLAKEKSKEILEELEKLK
B15: LC3A_3_1350 (protein)
chain: SEELIERLVERLREAGFSEEVIAAARRLLELLAKKGHEEAMERVVEVLLEHKDAPEEHIIEVLNNAAAEVEANPNLTEEEVEELIKLLDNDLEIEPIEEE
B16: LC3A_3_1439 (protein)
chain: MEELLKEAEKVLKEIGASEEARKAVLELVRLALEAGEEELVKELIKVLKKAKKVKSEDLLEAAERALRRIREEGVPVEEAMKEFIEEIRLLELEEEIEEL
B17: LC3A_3_1472 (protein)
chain: LEERLEEVLKRLREAGASEEVLEAVREAYEKLKELGHEEAAKTFIEEMEKLVGLPSELLLAFAEDVLAAVEKYADDPEKLIEEIKSIAAATRNEAEIIEL
B18: LC3A_free_47_2437 (protein)
chain: ATEVEKLEVVYEPGKEEEFREKVEEAIEEARRIATEEGKEVEVTIIVDDSPEAQALAREAEERFKAAAKEIGAKMTILVEYRDPETGASIIEITKVEPPP
B19: LC3A_3_1582 (protein)
chain: MEEMIEEYVERLREAGLSEEVIEKAREVITLLLERGWEETAKLVAEGLLELKDAEEELLLETLEEIKKIAEDESLSKEEVLKKVKELLSTAKSESEIIEL
B20: LC3A_3_1478 (protein)
chain: LEEELKAALEELRAAGASDEVLAAFEAAFKKLKELGWENAAKTFIEEARKLAGLPDELLLAFAADVEEAIEKYSNDEEKLAEEIKKIAAATLAEGEIIEL
B21: LC3A_147_420 (protein)
chain: YKVTVTADFIVKADPETALAAIKALAEELKKEGAKEVKIEVETDPETGEVFVTVTVVAEKETEEEAQAFANEVIDRFEALEEAHKDILKLGMISVEIEKK
B22: LC3A_45_1942 (protein)
chain: KTIYVAEIDILLKGSEEDLEKAKKIAKEVAKKYGVELEIDEELNKELNEKTKEDGYKFLRLTLKSESEEKVSKAADEIEEKLLEEFKGKVSSIISFSKEE
B23: LC3A_28_1194 (protein)
chain: SLADEAIAALRAQTEAALAAGSDEVITVTITSEMSLEDVERIAEAMREAAERLASVPSVSIVVDVESGVPQEAIDLLAETGEEIEAKYPNVTVIIALDED
B24: LC3A_147_442 (protein)
chain: VEIEIDILVKGEEAKEEVIKKIKEIVEELKEKGFEVELEIEVEKLDEDTYFIKVKIKVKAETKEEAEEAENLILDKIDEMEEELKDKILGSIISVEIEEE
B25: LC3A_free_8_2453 (protein)
chain: DSKKLAEKAIEILEELEEKLEKLLKKAGANHLEILDVKLEVGSVIAEVVSLSDESPEKIADAAIEGIDEVLKLVKELKPEIAEEAEKLAEEAKKKIKEAL
B26: LC3A_147_443 (protein)
chain: VEVEIDILVKGEEAVEKVKEGIKAIVEKLKEKGYKVKLEIKVEKIDENTYYIEVKIIVEAETEEEAEEARDIVLDGIDELEEELKDEILGSIISVEIIKK
B27: LC3A_free_8_2531 (protein)
chain: NVQEMVDLALKELDKLEKIAVEKAKELGLSRTDILELELVIGSAKIDIIEASDKSVEEIYKLFKEELKEILEEAKKYGEELYKEVEKKAKEALKKMEEAK
B28: LC3A_free_39_2232 (protein)
chain: MEEELEKKIKEIAKEGGIDYEYVKAKMEEIQKVGGLSKEEMLKIAEKLLEAVKAGADAEEILDRMLEITKELKAQGKSPEEILKAILEEIEDARNLIPLD
B29: LC3A_3_1650 (protein)
chain: AEERIEELLEELRELGKSEEVLEAVRRALEALLERGYYEALETFIELMRELADLSDELLLQLANDVLELVETSDLSEEELTEEIKKIATTIRNEGEIIEL

biological target: MAP1LC3A, Q9H492; assay: median log2 fold change of GCK-ALFA target abundance (FLAG IP / Myc IP barcode read proportion) (log2 ratio); each designed protein is fused to an ALFA-tag nanobody in HEK293 cells to bring the named protein to FLAG-tagged glucokinase (GCK); Myc marks an untargeted standard; higher = target protein stabilised (more abundant); settings: target protein: 3xFLAG-MCP-GCK-ALFA reporter; HEK293 landing pad (RPLP)
Procedure, shortened: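 HEK293 landing-pad cells received a recombined binder library fused to the ALFA nanobody and were induced with 2 μg mL^−1 doxycycline, then transfected with a plasmid encoding a FLAG-tagged target and a Myc-tagged standard. Lysates were collected after 48 h for anti-FLAG and anti-Myc immunoprecipitation, and the circular RNA barcodes were reverse transcribed, amplified and sequenced. Target abundance for each binder is the median log2 ratio of FLAG to Myc barcode read proportions. Barcodes had to reach a proportion of at least 10^−7 in both replicates, each binder needed at least 3 barcodes per replicate, a pseudocount of 10^−6 was applied, and the two replicates were pooled.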

| Binder | median log2 fold change |
| --- | --- |
| B1 | 0.00506 |
| B2 | 0.167 |
| B3 | -0.0121 |
| B4 | 0.102 |
| B5 | -0.51 |
| B6 | -0.165 |
| B7 | 0.107 |
| B8 | -0.0666 |
| B9 | 0.275 |
| B10 | 0.214 |
| B11 | 0.179 |
| B12 | 0.0149 |
| B13 | 0.257 |
| B14 | -0.196 |
| B15 | 0.314 |
| B16 | 0.115 |
| B17 | 0.213 |
| B18 | 0.233 |
| B19 | 0.212 |
| B20 | 0.239 |
| B21 | 0.0454 |
| B22 | 0.247 |
| B23 | 0.0234 |
| B24 | -0.21 |
| B25 | 0.172 |
| B26 | 0.256 |
| B27 | -0.0124 |
| B28 | 0.145 |
| B29 | 0.184 |
